This is an account of results in the supplement of paper PMC8728848.

The list shows a part of the results.

Assay in all cases: glycan array binding signal (z-score within array); higher = stronger binding
Settings in all cases: glycan notation: IUPAC condensed, linker removed

The target in test [1] is Fuc(a1-2)Gal(b1-4)Glc6S. The method, boiled down:
(§1)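 Glycan array binding is given as a within-array Z-score, which can be read as non-binding when negative. The arrays, 3228 of them, came from the Consortium for Functional Glycomics database and were retained only where the protein sequence was available. Z-scores were averaged across arrays of the same protein sequence at different concentrations or buffers and across linkers.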

Test [2] deals with Fuc(a1-2)Gal(b1-4)GlcNAc. The procedure, abridged: as §1
For test [3], the target named is Fuc(a1-2)Gal(b1-4)GlcNAc(b1-2)Man. The method, boiled down: as §1
Test [4] deals with Fuc(a1-2)Gal(b1-4)GlcNAc(b1-2)Man(a1-3)[Fuc(a1-2)Gal(b1-4)GlcNAc(b1-2)Man(a1-6)]Man(b1-4)GlcNAc(b1-4)GlcNAc. The procedure, abridged: as §1
Test [5] deals with Fuc(a1-2)Gal(b1-4)GlcNAc(b1-2)Man(a1-3)[Fuc(a1-2)Gal(b1-4)GlcNAc(b1-2)Man(a1-6)]Man(b1-4)GlcNAc(b1-4)[Fuc(a1-6)]GlcNAc. The method, boiled down: as §1
For test [6], the target named is Fuc(a1-2)Gal(b1-4)GlcNAc(b1-2)[Fuc(a1-2)Gal(b1-4)GlcNAc(b1-4)]Man(a1-3)[Fuc(a1-2)Gal(b1-4)GlcNAc(b1-2)Man(a1-6)]Man(b1-4)GlcNAc(b1-4)GlcNAc. The procedure, abridged:
as §1

Test [7] addresses Fuc(a1-2)Gal(b1-4)GlcNAc(b1-3)Gal(b1-4)GlcNAc. The procedure, abridged:
as §1

Test [8] deals with Fuc(a1-2)Gal(b1-4)GlcNAc(b1-3)Gal(b1-4)GlcNAc(b1-2)Man(a1-3)[Fuc(a1-2)Gal(b1-4)GlcNAc(b1-3)Gal(b1-4)GlcNAc(b1-2)Man(a1-6)]Man(b1-4)GlcNAc(b1-4)GlcNAc. The procedure, abridged: as §1
The target of test [9] is Fuc(a1-2)Gal(b1-4)GlcNAc(b1-3)Gal(b1-4)GlcNAc(b1-3)Gal(b1-4)GlcNAc. The method, boiled down: as §1
The target in test [10] is Fuc(a1-2)Gal(b1-4)GlcNAc(b1-3)GalNAc. The method, boiled down:
as §1

Test [11] concerns the target Fuc(a1-2)Gal(b1-4)GlcNAc(b1-3)[Fuc(a1-2)Gal(b1-4)GlcNAc(b1-6)]GalNAc. The procedure, abridged:
as §1

Test [12] concerns the target Fuc(a1-2)Gal(b1-4)GlcNAc(b1-3)[Fuc(a1-3)[Gal(b1-4)]GlcNAc(b1-6)]Gal(b1-4)Glc. The method, boiled down: as §1
Test [13] has as its target Fuc(a1-2)Gal(b1-4)GlcNAc(b1-6)GalNAc. The method, boiled down: as §1
For test [14], the target named is Fuc(a1-2)Gal(b1-4)GlcNAc6S. The procedure, abridged:
as §1

In test [15] the target is Fuc(a1-2)Gal(b1-4)[Fuc(a1-3)]GlcNAc. The method, boiled down:
as §1

In test [16] the target is Fuc(a1-2)Gal(b1-4)[Fuc(a1-3)]GlcNAc(b1-2)Man(a1-3)[Fuc(a1-2)Gal(b1-4)[Fuc(a1-3)]GlcNAc(b1-2)Man(a1-6)]Man(b1-4)GlcNAc(b1-4)[Fuc(a1-6)]GlcNAc. The method, boiled down: as §1
Test [17] addresses Fuc(a1-2)Gal(b1-4)[Fuc(a1-3)]GlcNAc(b1-2)[Fuc(a1-2)Gal(b1-4)[Fuc(a1-3)]GlcNAc(b1-4)]Man(a1-3)[Fuc(a1-2)Gal(b1-4)[Fuc(a1-3)]GlcNAc(b1-2)Man(a1-6)]Man(b1-4)GlcNAc(b1-4)GlcNAc. The method, boiled down: as §1
Test [18] addresses Fuc(a1-2)Gal(b1-4)[Fuc(a1-3)]GlcNAc(b1-3)Gal(b1-4)[Fuc(a1-3)]GlcNAc. The method, boiled down:
as §1

Test [19] has as its target Fuc(a1-2)Gal(b1-4)[Fuc(a1-3)]GlcNAc(b1-3)Gal(b1-4)[Fuc(a1-3)]GlcNAc(b1-3)Gal(b1-4)[Fuc(a1-3)]GlcNAc. The method, boiled down:
as §1

Test [20] deals with Fuc(a1-2)Gal(b1-4)[Fuc(a1-3)]GlcNAc(b1-3)GalNAc. The method, boiled down: as §1
Test [21] addresses Fuc(a1-2)Gal(b1-4)[Fuc(a1-3)]GlcNAc(b1-3)[Neu5Ac(a2-6)Gal(b1-4)GlcNAc(b1-6)]Gal(b1-4)Glc. The method, boiled down:
as §1

The target of test [22] is Fuc(a1-2)Gal3S(b1-4)GlcNAc. The method, boiled down: as §1
The target of test [23] is Fuc(a1-2)Gal6S(b1-3)GlcNAc. The method, boiled down:
as §1

B1: Cohesin-hDC-ASGPR (Homo sapiens) (protein)
chain: LDDLDAVRIKVDTVNAKPGDTVRIPVRFSGIPSKGIANCDFVYSYDPNVLEIIEIEPGDIIVDPNPDKSFDTAVYPDRKIIVFLFAEDSGTGAYAITKDGVFATIVAKVKEGAPNGLSVIKFVEVGGFANNDLVEQKTQFFDGGANVGDTTEPATPTTPVTTPTTTDDLDAASQNSKFQRDLVTLRTDFSNFTSNTVAEIQALTSQGSSLEETIASLKAEVEGFKQERQAGVSELQEHTTQKAHLGHCPHCPSVCVPVHSEMLLRVQQLVQDLKKLTCQVATLNNNASTEGTCCPVNWVEHQDSCYWFSHSGMSWAEAEKYCQLKNAHLVVINSREEQNFVQKYLGSAYTWMGLSDPEGAWKWVDGTDYATGFQNWKPGQPDDWQGHGLGGGEDCAHFHPDGRWNDDVCQRPYHWVCEAGLGQTSQESHHHHHH
Take B1: the “glycan array binding signal (z-score)” value in test [1] was -0.472; in test [2], -0.256; in test [3], -0.43; in test [4] it was -0.377; in [5] it was 0.562; in test [6], -0.291. Also, the “glycan array binding signal (z-score)” value in test [7] was -0.306; in test [8], 0.227; in test [9] it was -0.451; in [10], -0.29; in test [11], 0.606; in test [12], -0.514. In addition, the “glycan array binding signal (z-score)” value was 2.81 in test [13]; -0.454 in test [14]; -0.381 in test [15]; 0.141 in [16]; -0.025 in [17]; -0.499 in test [18]. Further, the “glycan array binding signal (z-score)” value in test [19] is -0.411; in test [20] it was -0.427; in [21] it was -0.505; in test [22], -0.377; in test [23], -0.246.
